The supplement of paper PMC7826260
This is one part of the list. Viral Rep nickase domains cut single-stranded DNA in vitro (3 µM enzyme, 1 h, 37 °C); shown is the middle of each 90-letter strand. Numbers give uncut DNA relative to the enzyme-free pool, as log2; the lower, the more was cut; hits are not called. Counts are relative to all reads; where an enzyme cuts many sequences, the uncut ones exceed 0.

How the values were obtained:
Assay in all cases: uncleaved DNA left, log2 of reads against the no-enzyme library (log2 ratio); higher = less cleavage (more negative = more Rep cleavage of the k-mer); sequences stand for … in CTCGTCCG…ACCGGAGA
[1] = test system: T1, Rep nickase domain of Muscovy duck circovirus
T1 sequence (protein, residues 1-111, tag omitted): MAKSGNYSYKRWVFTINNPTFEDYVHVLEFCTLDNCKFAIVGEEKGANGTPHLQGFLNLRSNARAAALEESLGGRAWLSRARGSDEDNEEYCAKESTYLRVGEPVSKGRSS
Description: (§1)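 A pool of 90-nt single-stranded DNAs with seven random bases just before the constant AC of the nick site (name = the seven bases) was cut by 3 µM recombinant His6-SUMO-tagged Rep nickase domain (300 nM DNA, 50 mM HEPES pH 8.0, 50 mM NaCl, 1 mM MnCl2, 1 h, 37 °C, three replicates). Uncut DNA was amplified and sequenced.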

[2] = test system: T2, Rep nickase domain of banana bunchy top virus
T2 sequence (protein, residues 1-94, tag omitted): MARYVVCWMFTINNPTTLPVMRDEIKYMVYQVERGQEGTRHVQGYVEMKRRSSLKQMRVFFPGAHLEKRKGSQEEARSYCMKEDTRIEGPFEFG
Description: as §1

[3] = test system: T3, Rep nickase domain of cabbage leaf curl virus
T3 sequence (protein, residues 1-116, tag omitted): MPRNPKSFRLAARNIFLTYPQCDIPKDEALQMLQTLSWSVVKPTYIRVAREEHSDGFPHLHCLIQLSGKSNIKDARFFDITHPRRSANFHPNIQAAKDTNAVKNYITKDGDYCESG
Description: as §1

[4] = test system: T4, Rep nickase domain of chickpea chlorotic dwarf virus
T4 sequence (protein, residues 1-124, tag omitted): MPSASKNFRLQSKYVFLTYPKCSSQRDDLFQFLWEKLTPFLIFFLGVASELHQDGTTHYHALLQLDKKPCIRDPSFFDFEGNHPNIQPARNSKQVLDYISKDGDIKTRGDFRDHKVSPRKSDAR
Description: as §1

[5] = test system: T5, Rep nickase domain of faba bean necrotic yellows virus
T5 sequence (protein, residues 1-98, tag omitted): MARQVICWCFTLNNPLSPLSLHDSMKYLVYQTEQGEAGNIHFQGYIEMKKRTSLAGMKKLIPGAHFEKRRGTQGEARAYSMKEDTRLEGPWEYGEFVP
Description: as §1

[6] = test system: T6, Rep nickase domain of maize striate mosaic virus
T6 sequence (protein, residues 1-117, tag omitted): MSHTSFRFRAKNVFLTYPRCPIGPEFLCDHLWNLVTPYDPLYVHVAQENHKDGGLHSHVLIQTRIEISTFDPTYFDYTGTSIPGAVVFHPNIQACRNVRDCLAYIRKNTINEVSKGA
Description: as §1

[7] = test system: T7, Rep nickase domain of porcine circovirus 2
T7 sequence (protein, residues 2-116, tag omitted): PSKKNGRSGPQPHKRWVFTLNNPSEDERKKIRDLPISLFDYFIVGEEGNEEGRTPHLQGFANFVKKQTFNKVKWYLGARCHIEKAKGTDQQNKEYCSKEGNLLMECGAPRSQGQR
Description: as §1

[8] = test system: T8, Rep nickase domain of tomato golden mosaic virus
T8 sequence (protein, residues 1-124, tag omitted): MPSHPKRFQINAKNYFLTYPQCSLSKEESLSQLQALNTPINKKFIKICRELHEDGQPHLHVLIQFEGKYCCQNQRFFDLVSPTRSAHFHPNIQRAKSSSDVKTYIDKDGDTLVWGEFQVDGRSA
Description: as §1

[9] = test system: T9, Rep nickase domain of tomato yellow leaf curl virus
T9 sequence (protein, residues 1-136, tag omitted): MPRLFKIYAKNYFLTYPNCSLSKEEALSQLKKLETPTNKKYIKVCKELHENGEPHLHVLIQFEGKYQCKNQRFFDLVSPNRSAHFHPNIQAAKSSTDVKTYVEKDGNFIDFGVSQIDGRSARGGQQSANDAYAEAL
Description: as §1

[10] = test system: T10, Rep nickase domain of wheat dwarf virus
T10 sequence (protein, residues 1-137, tag omitted): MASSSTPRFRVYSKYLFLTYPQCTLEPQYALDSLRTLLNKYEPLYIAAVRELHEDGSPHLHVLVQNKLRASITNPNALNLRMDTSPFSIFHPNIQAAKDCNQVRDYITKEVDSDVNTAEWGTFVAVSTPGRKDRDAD
Description: as §1

Sequence	uncleaved DNA left (log2) [1]	uncleaved DNA left (log2) [2]	uncleaved DNA left (log2) [3]	uncleaved DNA left (log2) [4]	uncleaved DNA left (log2) [5]	uncleaved DNA left (log2) [6]	uncleaved DNA left (log2) [7]	uncleaved DNA left (log2) [8]	uncleaved DNA left (log2) [9]	uncleaved DNA left (log2) [10]
TATTTGC	-0.0756	0.0237	-0.695	-0.109	0.135	-1.08	0.0812	-0.0204	0.101	-0.0375
GAACCGT	0.0176	0.0306	0.0287	-0.609	-0.0137	-0.144	-0.118	-0.106	-0.0362	-0.0663
CCACTAG	-0.0706	0.0559	-0.831	-0.516	-0.0167	-1	0.0533	0.0305	-0.0676	-0.0582
ACCTGCT	-0.391	-0.031	-0.776	-1.23	0.027	-0.895	-1.42	-0.0672	0.0271	0.00538
CAGTACG	-0.0241	-0.108	-0.829	-0.207	-0.0497	-1.05	0.0484	-0.00346	0.0707	-0.0839
GAAATGC	0.0126	0.0291	-0.35	-0.332	0.0283	-0.937	0.102	-0.089	0.103	0.0203
TCAAATC	0.0851	-0.0196	0.0973	-0.135	0.0276	-0.52	0.0715	-0.014	-0.0194	0.0275
GTTTGGT	-0.163	-0.05	0.258	0.645	0.0664	1.23	-0.296	0.0222	0.0478	0.0309
TCGTTAC	-0.0175	-0.165	-0.00893	-1.49	-0.187	-0.531	-0.0639	-0.173	-0.167	-0.208
CTGGTGT	-0.0444	-0.0159	-0.193	-0.593	0.09	-0.667	-0.0203	-0.0499	0.0852	-0.135
CCCGATG	-0.111	-0.263	-0.235	-0.0842	-0.0701	-0.441	-0.0955	-0.331	-0.24	-0.209
ATGCCAC	-0.00561	-0.0564	-0.0476	-0.204	0.094	-0.501	0.0252	0.0756	0.0541	0.152
GGTGAGA	0.0993	0.123	0.837	1.68	0.137	1.95	0.285	0.134	0.0755	0.222
ACTGGCC	0.00541	-0.0289	-0.099	0.551	-0.00781	1	0.162	0.0314	-0.0669	0.0166
CATGCAG	0.0575	-0.0971	-0.738	-0.165	0.0651	-0.795	0.14	-0.00889	0.0404	-0.109
GAAGAGG	-0.0361	0.021	0.403	0.854	0.0357	0.778	0.136	0.159	0.0467	0.0698
ACACTTC	-0.0015	-0.0167	-0.22	-0.495	-0.0059	-0.966	0.127	0.0143	-0.053	-0.137
CCAGTGG	0.00814	-0.0766	-0.245	-0.279	-0.0741	-0.987	0.0209	-0.0211	0.0941	-0.0377
AAATGTT	-4.03	-3.7	-4.88	-3.47	-1.32	-3.68	-4.9	-4.13	-3.66	-4.41
AGCTTCG	-0.0549	0.0103	-0.703	-0.491	-0.0977	-1.09	0.125	-0.0518	0.0974	-0.0394

Sequence	uncleaved DNA left (log2) [1]	uncleaved DNA left (log2) [2]	uncleaved DNA left (log2) [3]	uncleaved DNA left (log2) [4]	uncleaved DNA left (log2) [5]	uncleaved DNA left (log2) [6]	uncleaved DNA left (log2) [7]	uncleaved DNA left (log2) [8]	uncleaved DNA left (log2) [9]	uncleaved DNA left (log2) [10]
GTCGTCC	0.0849	0.14	0.44	0.808	0.0228	1.64	0.0607	0.0718	0.163	0.0697
ACTTATG	-0.064	0.0298	-0.676	-0.588	-0.00807	-1.07	0.0498	-0.0564	-0.0802	-0.0608
GTAAGGA	0.0709	0.0653	0.202	0.327	0.0562	0.442	0.135	0.0879	0.0232	0.154
GCCAATC	0.0183	-0.000362	-0.0668	0.339	-0.093	0.0234	0.0902	-0.013	0.154	0.00547
TAATGTG	0.0435	-0.0662	-1.08	-1.69	0.0739	-1.15	0.146	-0.0749	0.0764	-0.0469
AGTGTCC	0.0569	0.149	0.263	0.339	0.155	0.726	0.0161	0.07	0.0398	0.0297
GCACTCG	-0.0859	-0.113	-0.863	-0.525	-0.0108	-1.12	0.0853	-0.139	-0.131	-0.117
CTCCCGC	-0.00783	0.0023	-0.388	-0.645	-0.0162	-0.662	0.157	-0.071	-0.00102	-0.0587
TACCACA	-0.116	0.0116	-0.223	-2.49	0.0886	-0.401	-0.648	-0.0267	0.0319	-0.064
TAAGTAA	0.127	-0.00575	-0.187	-1.76	0.0387	-0.246	0.0824	0.0825	0.0457	-0.0156
CTTACAC	-0.00748	-0.154	-0.195	-2.41	-0.056	-0.805	-0.00966	-0.0934	-0.0954	-0.111
TCCCCAG	-0.184	-0.175	-0.526	-0.889	-0.203	-1.05	-0.143	-0.0661	-0.117	-0.113
GGGTGGA	-0.0706	0.0673	0.714	1.61	-0.0207	2.01	0.11	0.0152	0.0414	0.104
GGAGGCG	0.109	0.0954	-0.49	0.725	0.301	-0.12	0.218	0.0635	0.163	0.0942
AGGCTAG	0.0146	0.00826	-0.26	-0.221	0.117	-0.66	0.109	0.0735	-0.0565	0.0105
ACGGGTC	-0.0792	0.00748	-0.0449	-0.188	-0.011	-0.0886	0.0113	-0.123	-0.156	0.00686
CGTCCCT	-0.0827	-0.0992	0.0366	-0.992	-0.0597	-0.0244	-0.355	-0.115	0.00294	-0.068
CGTCTTG	-0.213	-0.143	-0.287	-0.0785	-0.101	0.271	-0.139	-0.268	-0.107	-0.101
GTGTAAT	-0.0545	0.0959	0.397	0.913	-0.0338	1.89	-2.25	0.184	0.186	0.111
ACAAGCC	0.0203	-0.0683	-0.379	-0.454	-0.015	-0.919	0.147	0.106	-0.00292	-0.0328

Sequence	uncleaved DNA left (log2) [1]	uncleaved DNA left (log2) [2]	uncleaved DNA left (log2) [3]	uncleaved DNA left (log2) [4]	uncleaved DNA left (log2) [5]	uncleaved DNA left (log2) [6]	uncleaved DNA left (log2) [7]	uncleaved DNA left (log2) [8]	uncleaved DNA left (log2) [9]	uncleaved DNA left (log2) [10]
GTAATTC	-0.0014	0.0477	0.31	0.865	-0.0284	1.45	-0.0123	-0.0351	0.017	0.076
CACGCCG	-0.0532	-0.0538	-0.863	-0.144	-0.0706	-0.768	0.17	0.0176	-0.0307	-0.113
GCAACCT	-0.0287	0.119	-0.0931	-1.49	-0.0893	-0.026	-0.868	-0.0664	0.0669	0.015
TCACAGG	-0.0212	-0.0661	0.413	1.22	-0.0556	1.16	0.0601	0.0925	-0.205	0.123
GCCGACT	-0.0231	-0.168	0.0604	0.21	-0.207	1.18	-0.132	-0.238	-0.134	-0.128
ACTATCT	-0.072	-0.0163	-0.374	-2.37	-0.0804	-0.851	-2.94	0.0019	-0.039	-0.175
GTGGGCT	0.00714	0.00431	0.695	1.63	0.0277	2.18	0.122	-0.0268	-0.0493	0.097
AGAATCG	0.0756	0.0411	-0.645	-0.641	0.103	-1.08	0.236	0.065	-0.0349	-0.0434
TCGTCGA	0.141	-0.0479	-0.375	-0.698	-0.0442	-0.902	0.0914	-0.0423	-0.0211	-0.128
CACGACA	-0.0663	0.117	-0.0579	-1.82	-0.0416	0.0126	-0.611	-0.103	0.0427	-0.218
TGAAGGG	0.00525	0.0685	0.12	0.266	0.0748	-0.312	0.173	0.0938	-0.00442	-0.00229
CGCGGTC	-0.225	-0.255	-0.218	-0.333	-0.228	-0.703	-0.116	-0.163	-0.154	-0.24
GATGGTA	0.0419	-0.0327	0.309	0.588	-0.00539	1.16	-0.0239	0.0329	0.123	0.0698
GACACCG	-0.0618	-0.0419	-0.714	-0.586	-0.164	-0.861	0.0318	-0.058	-0.119	-0.227
TAGTCGA	0.0447	-0.0713	-0.385	-0.924	0.0833	-1.21	-2.09	-0.159	0.119	0.0215
AGCATAC	0.00813	-0.00874	-0.132	-0.252	0.0282	-0.299	-0.0849	0.054	-0.0938	-0.0446
CTTGGCA	0.032	0.112	-0.328	-0.72	0.114	-0.833	0.096	0.0222	0.131	0.034
CCTTCGG	-0.0905	-0.121	0.419	1.14	-0.086	1.24	-0.0502	0.0652	-0.0793	-0.0231
TTGGTTG	-0.0442	-0.0178	-0.373	-0.484	-0.163	-0.803	-0.021	-0.167	-0.124	-0.175
CCTAGAA	0.0179	0.00903	0.114	-0.244	0.0575	-0.55	0.0817	0.0967	-0.104	0.0651
